Assay results published in PubChem BioAssay AID504333 (National Center for Advancing Translational Sciences (NCATS), 2011).
Several values for one entry are separate records, joined by “and”; a condition that tells them apart may be missing. Identical values can stand only once. About 16,000 (4.4%) of roughly 360,000 compounds were called active. The inconclusive results got no clear call from the source; some entries with a clear call stand among them for comparison. Calls come from the whole dose curve; as a rule, active = well fitted inhibition curve with a large enough effect; inconclusive = small, poorly fitted or top-dose-only effect; inactive = no such curve, though single readings can be large or run the other way. Potencies beside an inconclusive call are fits to weak or partial responses and may not hold up.

molecular target: Bromodomain adjacent to zinc finger domain protein 2B (Homo sapiens) (UniProt Q9UIF8); assay: qHTS Assay for Inhibitors of BAZ2B; details: AlphaScreen BAZ2B-H3K14Ac peptide displacement; series mostly up to 114 µM; note: nearly all actives have a fitted effect of over 60% in size
UniProt Q9UIF8, sequence (Q9UIF8 whole entry, looked up, the tested form may be a part): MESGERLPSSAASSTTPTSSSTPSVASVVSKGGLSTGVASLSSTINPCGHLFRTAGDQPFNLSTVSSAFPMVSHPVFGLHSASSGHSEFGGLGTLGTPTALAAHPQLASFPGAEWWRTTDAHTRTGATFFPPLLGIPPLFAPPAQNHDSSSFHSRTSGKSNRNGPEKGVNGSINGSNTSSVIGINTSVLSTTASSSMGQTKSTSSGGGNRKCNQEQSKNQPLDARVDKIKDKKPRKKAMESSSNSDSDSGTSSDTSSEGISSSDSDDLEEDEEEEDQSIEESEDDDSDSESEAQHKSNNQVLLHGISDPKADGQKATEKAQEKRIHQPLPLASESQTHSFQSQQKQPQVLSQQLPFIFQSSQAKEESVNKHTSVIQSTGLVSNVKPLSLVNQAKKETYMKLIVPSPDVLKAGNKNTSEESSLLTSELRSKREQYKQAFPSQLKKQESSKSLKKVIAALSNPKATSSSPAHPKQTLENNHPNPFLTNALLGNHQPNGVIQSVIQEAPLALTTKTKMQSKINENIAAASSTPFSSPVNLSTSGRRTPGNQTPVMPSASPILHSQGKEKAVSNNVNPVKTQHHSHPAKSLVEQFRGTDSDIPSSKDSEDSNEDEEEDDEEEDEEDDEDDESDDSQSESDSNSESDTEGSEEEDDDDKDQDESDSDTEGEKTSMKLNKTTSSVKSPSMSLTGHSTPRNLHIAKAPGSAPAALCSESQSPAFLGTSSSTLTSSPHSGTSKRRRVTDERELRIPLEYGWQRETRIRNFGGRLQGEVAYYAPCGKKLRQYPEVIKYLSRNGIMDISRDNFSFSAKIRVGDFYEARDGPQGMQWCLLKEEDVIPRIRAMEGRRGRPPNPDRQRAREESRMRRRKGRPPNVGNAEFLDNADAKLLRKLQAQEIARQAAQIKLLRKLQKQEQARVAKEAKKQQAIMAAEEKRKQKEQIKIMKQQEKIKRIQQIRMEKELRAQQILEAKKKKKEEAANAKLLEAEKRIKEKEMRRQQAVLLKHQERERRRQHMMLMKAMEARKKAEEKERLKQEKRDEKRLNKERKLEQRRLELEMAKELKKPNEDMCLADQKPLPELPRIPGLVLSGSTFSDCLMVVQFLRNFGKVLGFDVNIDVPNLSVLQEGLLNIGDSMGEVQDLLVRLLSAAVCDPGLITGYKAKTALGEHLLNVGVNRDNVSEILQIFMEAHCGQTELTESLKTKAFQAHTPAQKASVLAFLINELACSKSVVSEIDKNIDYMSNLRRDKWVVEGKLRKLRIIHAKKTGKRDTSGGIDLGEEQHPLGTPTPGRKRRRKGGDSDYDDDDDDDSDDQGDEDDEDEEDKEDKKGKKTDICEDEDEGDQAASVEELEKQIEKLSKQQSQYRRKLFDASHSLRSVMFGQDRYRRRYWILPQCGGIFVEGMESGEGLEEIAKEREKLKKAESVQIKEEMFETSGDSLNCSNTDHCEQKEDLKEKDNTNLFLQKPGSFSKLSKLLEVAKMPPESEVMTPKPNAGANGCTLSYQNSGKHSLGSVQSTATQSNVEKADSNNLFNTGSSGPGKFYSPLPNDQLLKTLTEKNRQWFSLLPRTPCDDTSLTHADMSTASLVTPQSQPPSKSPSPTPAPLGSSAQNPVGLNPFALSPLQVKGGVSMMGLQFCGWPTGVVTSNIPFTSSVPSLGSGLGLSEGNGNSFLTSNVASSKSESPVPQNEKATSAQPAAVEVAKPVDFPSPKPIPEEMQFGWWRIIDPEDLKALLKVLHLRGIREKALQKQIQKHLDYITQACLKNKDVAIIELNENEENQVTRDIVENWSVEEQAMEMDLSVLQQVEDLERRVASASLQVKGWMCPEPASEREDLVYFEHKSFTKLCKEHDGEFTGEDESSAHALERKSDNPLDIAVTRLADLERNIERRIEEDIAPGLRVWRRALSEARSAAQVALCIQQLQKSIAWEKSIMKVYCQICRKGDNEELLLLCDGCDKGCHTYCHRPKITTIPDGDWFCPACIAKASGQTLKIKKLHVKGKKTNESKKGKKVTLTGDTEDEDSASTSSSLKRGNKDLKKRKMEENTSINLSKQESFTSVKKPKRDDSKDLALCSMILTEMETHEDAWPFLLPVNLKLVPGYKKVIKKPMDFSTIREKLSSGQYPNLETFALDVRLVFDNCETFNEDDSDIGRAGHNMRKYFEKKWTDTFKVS
Summary of the method: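 Protein-peptide AlphaScreen: BAZ2B 50 nM, b-H3K14Ac 50 nM, 1x PBS pH 7.4 + 0.01% Tween-20. Preincubation 30 min RT; cpd 30 min RT (top 110 uM); beads 20 min RT, light-protected.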
Potency is the fitted concentration of half-maximal effect; tags give direction and shape of the fitted curve.

Compound | Potency
COc1ccc(C)cc1NC(=O)CSc1ccc(-c2ccccn2)nn1 | active: 3.16 µM and active: 3.55 µM
Cc1nc(CC(=O)Nc2nc(C(C)(C)C)cs2)cs1 | inconclusive: 35.5 µM [inhibitor, single point]
CN(C)CCNCCCOc1ccccc1-c1ccccc1 | active: 39.8 µM
COc1ccc2cc(-c3[nH]ncc3CN3CCCN(c4ccccc4)CC3)ccc2c1 | active: 31.6 µM
C#CCOCCOCCOCCNc1nc(N2CCN(C(=O)[C@H](C(C)C)n3cc(CCO)nn3)CC2)nc(N2CCN(C(=O)[C@H]([C@@H](C)CC)n3cc(CCCN=C(N)N)nn3)CC2)n1 | inconclusive: 70.8 µM [inhibitor, partial curve, poor fit]
COC(=O)c1c(NC(=O)c2ccc(C)c(S(=O)(=O)Nc3ccccc3C)c2)sc2c1CCCC2 | inactive
Cc1ccc(S(=O)(=O)NN2C(=O)/C(=C/c3cccc(F)c3)SC2=S)cc1 | inconclusive: 56.2 µM [inhibitor, partial curve]
CCNc1ccccc1CP(=O)(c1ccccc1)c1ccccc1O (configuration not stated) | active: 39.8 µM
CN(C1=C(N2CCOCC2)C(=O)c2ccccc2C1=O)c1ccccc1 | active: 10 µM
Cc1[nH][nH]c(=O)c1C(c1c(C)[nH][nH]c1=O)c1cn(Cc2cccc3ccccc23)c2ccccc12 | inconclusive: 7.94 µM [inhibitor, partial curve]
CC(=O)c1c(C)[nH]c(C(=O)OCC(=O)Nc2ccc(C)cc2[N+](=O)[O-])c1C | inconclusive: 39.8 µM [inhibitor, full curve, poor fit]
CC1=CC(C)(C)N(C(=O)CSc2ncn[nH]2)c2ccccc21 | inconclusive: 7.08 µM [inhibitor, single point]
O=C(CNC(=O)[C@@H]1Cc2ccccc2CN1)Nc1ccc2c(c1)OCO2 | inconclusive: 89.1 µM [inhibitor, partial curve]
Cc1cccc(N2CCN(CCCNC(=O)c3nnc(Cc4c(F)cccc4Cl)o3)CC2C)c1 (configuration not stated) | inconclusive: 35.5 µM [inhibitor, full curve]
COc1ccc(C(=O)Nc2ccccc2C(=O)Nc2ccncc2)cc1 | inconclusive: 79.4 µM [inhibitor, partial curve]
O=c1c(C=NCc2cccnc2)c(C(F)(F)F)[nH]n1-c1nc2ccccc2s1 | inconclusive: 50.1 µM [inhibitor, partial curve]
Cc1ccccc1NC(=S)Nn1cnnc1 | inconclusive: 89.1 µM [inhibitor, single point]
CNC(=O)Nc1ccc(Cn2cc(C(F)(F)F)ccc2=O)cc1 | inactive
CCCCCCCC(=O)NNC(=O)c1ccc(F)cc1 | inactive
Cc1cc(C)n(CCc2nc(-c3ccc(C)o3)cs2)n1 | inconclusive: 44.7 µM [inhibitor, partial curve]
COc1ccc(C2C(C#N)=C(N)Oc3cc(C)n(Cc4ccco4)c(=O)c32)cc1 (configuration not stated) | inactive
CC1CCN(c2ncnc3c2nnn3C)CC1 | inactive
COc1ccc2nc3sc(C(=O)NCCCN4CCc5ccccc5C4)cc3cc2c1 | inconclusive: 44.7 µM [inhibitor, partial curve]
Cc1ccc(S(=O)(=O)c2nc(-c3ccco3)oc2SCC(C)C)cc1 | inactive

Compound | Potency
O=C(CCC1N=C2c3ccccc3N=C(SCc3ccc(Cl)cc3)N2C1=O)NCc1ccco1 (configuration not stated) | inconclusive: 39.8 µM [inhibitor, partial curve]
CC(=O)c1cccc(NC(=O)CCS(=O)(=O)c2cccc3nonc23)c1 | inactive
CCOC(=O)c1[nH]c2ccccc2c1NC(=S)Nc1ccccc1 | inconclusive: 79.4 µM [inhibitor, single point]
CCCCOc1ccc(NC(=O)Cn2nnnc2-c2ccccc2F)cc1 | inactive
COc1ccc(-c2oc(NC(=O)CCl)c(C#N)c2-c2ccc(OC)cc2)cc1 | active: 50.1 µM
COc1ccccc1NS(=O)(=O)c1cc([N+](=O)[O-])ccc1N/N=C/c1c(C)[nH]c2ccccc12 | inconclusive: 50.1 µM [inhibitor, partial curve]
CCC(C)N1CCN(C(=O)c2cc(OC)cc(OC)c2)CC1 (configuration not stated) | active: 79.4 µM
Cc1ccc(CN(C)C(=O)c2cccc(S(=O)(=O)N3CCN(Cc4ccccc4)CC3)c2)o1 | inconclusive: 89.1 µM [inhibitor, single point]
Cc1cccc(NC(=O)c2ccc(N3CCCCC3)c([N+](=O)[O-])c2)n1 | active: 11.2 µM
O=C1CC(N(CCc2ccccc2)C(=S)Nc2ccccc2)C(=O)N1c1ccc(Br)cc1 (configuration not stated) | inactive
CN(c1ccc(C(=O)N2CCOCC2)cc1[N+](=O)[O-])C1CCCCC1 | active: 50.1 µM
COc1cccc(NC(=O)Cc2cn(C)c3ccccc23)c1 | inconclusive: 79.4 µM [inhibitor, single point]
C[C@H](NC(=O)c1ccccc1)C(=O)Nc1nc(-c2ccccn2)cs1 | active: 14.1 µM
O=C(COc1cccc([N+](=O)[O-])c1)N/N=C/c1ccco1 | inconclusive: 56.2 µM [inhibitor, partial curve]
Cc1cc(F)ccc1NC(=O)C1CCCN(S(=O)(=O)c2ccc3c(c2)CCCC(=O)N3)C1 (configuration not stated) | inactive
CCc1c(O)nc(SCC(=O)Nc2ccc3c(c2)CCC3)[nH]c1=O | inconclusive: 70.8 µM [inhibitor, single point]
Cc1ccc(SCc2nnc(NC(=O)c3ccccc3)s2)cc1 | inconclusive: 7.94 µM [inhibitor, full curve, poor fit]
COc1cccc(/C(O)=C2/C(=O)C(=O)N(CCN3CCOCC3)C2c2cccnc2)c1 (configuration not stated) | inconclusive: 89.1 µM [inhibitor, single point]
COc1ccccc1CNC(=O)c1ccc(-c2nc(CS(=O)c3ccccc3)c(C)o2)cc1 (configuration not stated) | inconclusive: 89.1 µM [inhibitor, single point]
O=C(NCc1cccc(C(F)(F)F)c1)N1CCN(S(=O)(=O)c2ccccc2F)CC1 | inactive
CCOC(=O)C1CCCCN1Cc1cccc(OCc2ccccc2)c1 (configuration not stated) | inconclusive: 100 µM [inhibitor, single point]
O=C(NC(Cc1ccccc1)C(=O)O)OCC1c2ccccc2-c2ccccc21 (configuration not stated) | inactive
CCC(Sc1ncccc1C(=O)O)C(=O)N1CCOCC1 (configuration not stated) | inconclusive: 89.1 µM [inhibitor, single point]
Clc1ccc(C2=Nn3c(Cn4nnc5ccccc54)nnc3SC2)cc1 | inconclusive: 79.4 µM [inhibitor, single point]

Compound | Potency
CCCCN1C(=O)CN(C2CCCCC2)C(=O)C1c1ccc(OC(C)C)c(OC)c1 (configuration not stated) | inactive
COc1cc(C(=S)NCc2ccccc2)cc(Br)c1O | inconclusive: 44.7 µM [inhibitor, partial curve]
COc1ccccc1C1NC=C([N+](=O)[O-])C=C1[N+](=O)[O-] (configuration not stated) | active: 44.7 µM
CCn1cc(/C=C(\NC(=O)c2ccccc2F)C(=O)N2CCCC2)c2ccccc21 | inconclusive: 79.4 µM [inhibitor, single point]
C/C(=N\Nc1ccc(Cl)c(C(=O)O)c1)c1ccc2c(c1)OCO2 | inconclusive: 56.2 µM [inhibitor, partial curve]
O=C(CN1CCCCC1)N/N=C/c1ccc(Cl)cc1 | inconclusive: 89.1 µM [inhibitor, single point]
COc1ccc(NC(=O)CC2C(=O)N(c3ccc(C)cc3)C(=O)N2Cc2cccnc2)cc1 (configuration not stated) | inactive
CCOC(=O)N1CCC2(CC1)OC(=O)C(C)=C2C(=O)NCc1cccc(OC)c1 | inactive
Cc1ncc(CO)c2cc(-c3nnc(Nc4ccc5c(c4)OCO5)s3)c(=O)oc12 | inconclusive: 56.2 µM [inhibitor, partial curve]
O=c1c2c3c(sc2nc2n1CCCC2)CCC3 | inactive
COc1cc(O)c(C(CCN2CCN(c3ccccc3)CC2)c2ccc(N(C)C)cc2)c(OC)c1 (configuration not stated) | active: 7.94 µM
CN(C)c1ccc(/C=N/n2c(C3CCCCC3)n[nH]c2=S)cc1 | inconclusive: 39.8 µM [inhibitor, partial curve]
CC(C)OC(=O)c1cccc(C(=O)O)n1 | inconclusive: 25.1 µM [inhibitor, full curve]
Cc1ccc(C)c(NC(=O)C(=O)NCCc2csc3nc(-c4ccccc4C)nn23)c1 | inactive
COc1ccccc1C(=O)NNC(=O)c1ccc(NC(=O)CC(C)C)cc1 | inconclusive: 89.1 µM [inhibitor, single point]
CC(CN1CCN(c2ccccc2)CC1)c1ccccc1 (configuration not stated) | inconclusive: 79.4 µM [inhibitor, single point]
O=c1[nH]c2cc3c(cc2cc1CN(Cc1ccco1)C(=S)NCC1CCCO1)OCCO3 (configuration not stated) | inactive
N#C/C(=C\c1cc2ccccc2nc1N1CCOCC1)C(=O)Nc1ccc(N2CCOCC2)cc1 | inconclusive: 8.91 µM [inhibitor, full curve, poor fit]
CCc1ccc(NC(=O)c2nn(-c3ccc(C)cc3)c(=O)n(C)c2=O)cc1 | inactive
CC1CCCN(CC(O)COCc2ccccc2)C1 (configuration not stated) | inactive
C/C(=N\NS(=O)(=O)c1ccc(C(C)(C)C)cc1)c1ccccc1 | inconclusive: 79.4 µM [inhibitor, single point]
CCCCNC(=O)N1CCN(C(=O)c2ccco2)CC1 | inconclusive: 89.1 µM [inhibitor, single point]
CCOC(=O)N1CCN(C(=O)CSCC(=O)N=c2sc3ccccc3n2C)CC1 | inactive
COc1cc2c3c(c1)-c1c(sn(-c4cc(OC)ccc4OC)c1=S)C(C)(C)N3C(=O)C2=O | active: 7.08 µM
